Consider 34 variants from the RNAGym collection of RNA variant scans (doi:10.1093/nar/gkz1192).

Read counts are not given, so values of variants with three or more changes are uncertain.

The labels stand for the following.
B1: CPEB3 Ribozyme (parent)
chain: UAACAGGGGGCCACAGCAGAAGCGUUCACGUCGCAGCCCCUGUCAGAUUCUGGUGAAUCUGCGAAUUCUGCUGUAUAUCUC

The variants in this data set derive from B1. Briefly: self-cleavage, relative activity (ratio to wild type); higher = more cleavage; in vitro, sequencing. The method, boiled down: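 CPEB3 self-cleaving ribozyme mutant libraries were made by rounds of error-prone PCR, barcoded, and transcribed in vitro with T7 RNA polymerase for 5 hours at 37°C. Cleavage occurred during transcription and a 15 min DNase I step before EDTA stop. RNAs were reverse transcribed with template switching and Illumina-sequenced, with DNA sequencing mapping barcodes to variants. Relative activity is the variant's cleaved/total read fraction divided by wild type's (minimum 5 reads), averaged across three batches.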
As to UAACAGGGGGCCACAGCAGAUGCGUUCACGUCGCAGCCCCUGUCAGAUUCUGGUGAAUCUGCGGAUUCCGCUGUGUAUCUC, the self-cleavage came to 0.06.

Regarding UAACAGGGGGCCACAGCAGAUGCGUUCACGUCGCGGCCCCUGUCAGAUUCUGGUGAAUCUGCGGAUUCUGCUGUUUAUCUC, the self-cleavage was 1.13.

Turning to UAACAGGGGGCCACAGCAGAUGCGUUCACGUCGCAGCCCCUGUCAGAUUCUGGUGGAACUGCGAAUUCUGCCGUAUAUCUC, the self-cleavage is 0.12.

In the case of UAACAGGGGGCCACAGCAGAUGCGUUCACGUCGCAGCCCCUGUCAGAUUCUGGUGGGUCUGCGAAUUCUGCUGUAUAUCCC, the self-cleavage came to 0.17.

For the variant UAACAGGGGGCCACAGCAGAUGCGUUCACGUCGCAGCCCCUGUCAGAUUCUGGUGGAUCCGCGAAUUCUGCUGUAUAUCUC, the self-cleavage is 0.06.

As to UAACAGGGGGCCACAGCAGAUGCGUUCACGUCGCAGCCCCUGUCUGAUUCUGGUGAAUCUGCGAAUUCUGCUGUAUACCUC, the self-cleavage amounted to 0.23.

Regarding UAACAGGGGGCCACAGCAGAUGAGCUCACGUCGCAGCCCCUGCCGGAUUCUGGUGCAUCUGCGAAUUCUGCUGUAUAUCUC, the self-cleavage stood at 0.11.

In the case of UAACAGGGGGCCACAGCAGAUGCGUUCACGUCGGAGCCCCUGUCUGAUUCUGGUGAAUCCGCGAAUUCUGCUGUAUAUCUC, the self-cleavage worked out at 0.1.

For UAACAGGGGGCCACAGCAGAUGCGUUCACGUCGCAGCCCCUGUCAGGUUCUGGUGAAUCUGCGAAUUCUGCUGUAUAUCCC, the self-cleavage is 0.38.

On to UAACAGGGGGCCACAGCAGAUGCGUUCACGUAGCAGCCCCUGUCAGAUUCCGGUGAACCUGCGAAUUCUGCUGUAUAUCUC, for which the self-cleavage turned out to be 0.11.

Consider UAACAGGGGGCCACAGCAGAUGCGUUCACGUCGCAGCCCCUGUCAGAUUCUGGUGGAUCUGCGAAUUCCGCUGUAUAUCUC, for which the self-cleavage worked out at 0.1.

As to UAACAGGGGGCCACAGCAGAUGCGUUCACGUCGCUGCCCCUGUCAGAUCCUGGUGAACCUGCGAAUUCUGCUGUAUACCUC, the self-cleavage was determined as 0.06.

UAACAGGGGGCCACAGCAGAUGCGUUCACGUCGCAGCCCCUGUCAGGUUCUGGUGGAUCUGCGAAUUCUGCAGUAUAUCUC: the self-cleavage was 0.09.

As to UAACAGGGGGCCACAGCAGAUGCGUUCACGUCGCAGUCCCUGUCAGAUUCUGGGGAAUCUGCGAAUUCAGCCGUAUAUCUC, the self-cleavage was 0.19.

As to UAACAGGGGGCCACAGCAGAUGCGUUCACGUGGCAGACCCUGUCAGAUCCUGGUGAAUCUGCGAAUUCUGCUGUAUAUCUC, the self-cleavage was determined as 0.09.

For UAACAGGGGGCCACAGCAGAUGCGUUUACGUCGCUGCCCCUGUCAGAUUCUGGUGAAUCUGCGAAUUCUGCUGUAUAUCUC, the self-cleavage is 0.14.

On to UAACAGGGGGCCACAGCAGAUGAGUUCACGUCGCAGCCCCUGUCAGAUUCUGGCGAAUCUGCGAAUUCUGCCGUAUAUCUC, for which the self-cleavage was 0.04.

Take UAACAGGGGGCCACAGCAGAUGCGUUCACGUCGCAGCCCCUGUCAGAUUCUGGUGAAUCUGCGUAUUCUGCUGUAUACCUC: the self-cleavage was 0.08.

For UAACAGGGGGCCACAGCAGAUGCGUUCACGUCGCAGCCCCUGUCAGAUUCUGGUGAUUCUGCGAAUUCUGCUGCAUAUCUC, the self-cleavage was 0.14.

For the variant UAACAGGGGGCCACAGCAGAUGCGUUCAUGUCGCAGCCCCUGUCAGAUUCUGGUGAAUCUGCGAAUUCUGCUGAAUAUCUC, the self-cleavage is 0.26.

With UAACAGGGGGCCACAGCAGAUGCGUUCACGUCGCGGCCCCUGUCAGACUCUGGUGAAUCUGCGAAUUCCGCUGUAUAUCUC, the self-cleavage was 0.18.

With UAACAGGGGGCCACAGCAGAUGCGUUCACGUCGCAGCCCCUGUCAGAUUCUGGUGAGUCCGCGAAUUCUGCCGUAUAUCUC, the self-cleavage stood at 0.11.

Consider UAACAGGGGGCCACAGCAGAUGCGUUCACGUCGCAGCCCCUGUCAGAUUCUGGUGAGUCUGCGAAUUCUGCCGUAUAUCUC, for which the self-cleavage is 0.48.

Consider UAACAGGGGGCCACAGCAGAUGUGCUCACGUCGCUGCCCCUGUCAGAUUCUGGUGAAUCUGCGAAUUCUGCUGUAUAUCUC, for which the self-cleavage stood at 0.17.

Regarding UAACAGGGGGCCACAGCAGAUGCGUUCACGUUGCAGCCCCCGUCAGACUCUGGUGACUCUGCGAAUUCUGCUGUAUACCUC, the self-cleavage was determined as 0.08.

Regarding UAACAGGGGGCCACAGCAGAUGCGUUCACGUCGCAGCCCCUGUCCGAUUCUGGUGAAUCUGCGGAUUCUGCUGUAUACCUC, the self-cleavage amounted to 0.04.

As for UAACAGGGGGCCACAGCAGAUGCGUUCACGUCGCAGCCCCUGUCGGAUCUUGGUGAAUCUGCGAAUUCAGCUGUAUAUCUC, the self-cleavage came to 0.1.

On to UAACAGGGGGCCACAGCAGAUGCGUUCACGUCGCAGCCCCUGUCGGAUUCAGGUGAAUCUGCGAAUUCUGCUGUAUAUCCC, for which the self-cleavage came to 0.28.

Consider UAACAGGGGGCCACAGCAGAUGCGUUCACGUCGCAGCACCUGUCAGAUUCUGGUGGAUCUGCGAAUUCUGCUGUAUAUCUC, for which the self-cleavage turned out to be 0.08.

Regarding UAACAGGGGGCCACAGCAGAUGCGUUCACGUCGCAGCCCCUGUCAGAUUCUGGUGAAUCUGCGAUUUCUGCCGUAUAUCUC, the self-cleavage turned out to be 0.24.

For UAACAGGGGGCCACAGCAGAUGCGUUCAAGUCGUAGCCCCUGUCAGAUUCUGGUGAAUCUGCGAAUUCUGCUGUAUAUCUC, the self-cleavage stood at 0.09.

With UAACAGGGGGCCACAGCAGAUGCGUUCACGUCGCAGCCCCUGUCAGGUUCUGGUGAAUCUGCGAAUUCUGCUGUAUUUCUU, the self-cleavage is 0.29.

Take UAACAGGGGGCCACAGCAGAUGCGUUCACGUCGCAGCCCCUGUCGGGUUCUGGUGCAUCUGCGAAUACUGCUGUACAUCUC: the self-cleavage turned out to be 0.07.

UAACAGGGGGCCACAGCAGAUGCGUUCACGUCGCGGCCCCUGUCAGAUUCUGGAGAAUCUGCGAAUCCUGCCGUAUAUCUC: the self-cleavage came out at 0.39.
